Article PMC6919601, “Identification of Plasmodium dipeptidyl aminopeptidase allosteric inhibitors by high throughput screening” (PLoS ONE, 2019)
The whole screen tested about 110,000 compounds, of which about 230 (0.21%) showed an effect of 50% or more. Some of the results follow.

Molecular target: DPAP1 (Plasmodium falciparum, UniProt Q8IIJ9)
Assay: primary screen, percent inhibition; read by cleavage of a fluorogenic dipeptide substrate; higher = more effect of the substance
Design: species or system P. falciparum D10 trophozoite lysates; single well
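Further: 30 min substrate incubation versus DMSO and 10 µM JCP410 controls.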

Sequence of DPAP1 (Q8IIJ9 whole entry, looked up): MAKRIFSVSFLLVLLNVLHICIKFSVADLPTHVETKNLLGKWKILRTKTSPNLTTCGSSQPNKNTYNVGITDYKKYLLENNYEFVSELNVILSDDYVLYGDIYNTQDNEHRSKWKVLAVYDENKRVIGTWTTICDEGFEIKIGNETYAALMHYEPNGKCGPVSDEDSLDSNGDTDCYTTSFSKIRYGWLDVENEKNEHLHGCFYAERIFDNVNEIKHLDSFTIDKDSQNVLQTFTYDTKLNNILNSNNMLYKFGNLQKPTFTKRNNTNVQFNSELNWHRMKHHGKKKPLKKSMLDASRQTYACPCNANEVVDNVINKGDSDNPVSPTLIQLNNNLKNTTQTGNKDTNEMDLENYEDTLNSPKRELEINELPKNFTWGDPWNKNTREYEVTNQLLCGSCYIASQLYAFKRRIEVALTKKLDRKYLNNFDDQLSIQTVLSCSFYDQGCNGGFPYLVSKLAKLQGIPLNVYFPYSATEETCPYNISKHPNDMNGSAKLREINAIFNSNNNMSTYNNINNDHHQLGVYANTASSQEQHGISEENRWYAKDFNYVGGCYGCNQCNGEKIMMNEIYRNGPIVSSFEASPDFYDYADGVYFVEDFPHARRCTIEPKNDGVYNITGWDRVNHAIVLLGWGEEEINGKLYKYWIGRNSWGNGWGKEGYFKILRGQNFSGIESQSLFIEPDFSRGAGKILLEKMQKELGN

Compound | % Inhibition @ 10 uM
C=C(C)CN(CC)C/C=C/c1ccccc1[N+](=O)[O-] | -0.603%
O=C(O)CC/C(=C1\C=C(c2ccc(Cl)cc2)NC1=O)c1ccc(Cl)cc1 | 12.6%
CC(C)C[C@H](NC(=O)c1ccc2oc(-c3ccc[n+](C)c3)nc2c1)C(=O)NCC#N | -1.5%
CCOC(=O)c1cc2c(=O)n3ccccc3nc2n(C)/c1=N\C(=O)c1ccc(OC)cc1OC | 3.61%
COCCCN(Cc1cccs1)S(=O)(=O)c1ccc(-c2cc(C(F)(F)F)no2)s1 | 0.185%
CCOC(=O)c1c(NC(=O)c2cc(Cl)ccc2OC)sc(C(C)=O)c1C | 3.86%
COc1ccc(C2C=C(c3cccnc3)Nc3nc4ccccc4n32)cc1 (stereo not shown) | 3.32%
Cc1ccc(NC(=O)c2ccc(Cl)cc2)c(C)c1 | -5.34%
O=C(NC1CCS(=O)(=O)C1)OC1CCCCC1 (stereo not shown) | -6.44%
Cc1coc2cc3oc(=O)c(CC(=O)NCc4ccccc4Cl)c(C)c3cc12 | 4.13%
Cc1cccc(C(=O)Nc2cccc(NC(=O)c3cccc(C)c3)c2)c1 | -0.28%
CC1=C(C(=O)Nc2ccc(F)cc2)C(c2cccc(F)c2)NC(S)=N1 (stereo not shown) | -5.48%
O=[N+]([O-])c1ccc(CN2CCN(c3ccc(F)cc3)CC2)s1 | -3.77%
O=C(NC1CCc2ccccc2C1)c1cc2c(=O)oc3ccccc3c2s1 (stereo not shown) | 5.12%
O=C(O)c1ccc([N+](=O)[O-])cc1NC(=O)c1cccc2ccccc12 | 12.7%
COC(=O)c1cc(-c2ccc3ccccc3c2)[nH]n1 | -1.6%
COC(=O)c1c(-c2cc(C)ccc2C)csc1NC(=O)C1CCCCC1C(=O)O (stereo not shown) | 8.51%
COc1ccccc1/C=C1\C(=O)NC(=S)N(c2cccc3ccccc23)C1=O | -3.32%
CCC(C(=O)N1CCCC1)n1c(C(=O)OC)cc2sccc21 (stereo not shown) | -8.93%
Cc1cccc(CNc2nc3nc(C)c(Cl)c(C)n3n2)c1 | 1%
COc1ccc(C2C(C(=O)Nc3cccnc3)=C(C)Nc3nc(CCCO)nn32)cc1 (stereo not shown) | 0.889%
COc1cccc(-n2c(S)nnc2CN2CCN(C)CC2)c1 | 5.42%
CC(CNC(=O)Nc1ccc(Cl)cc1)NC(=O)Nc1ccc(Cl)cc1 (stereo not shown) | -1.38%
CC(C)Oc1ccc(CNC(=O)c2cc3cccc4c3n2CCS4)cc1 | 0.107%
O=C(CC(=O)NCc1cccnc1)NCc1cccnc1 | -2.74%

Compound | % Inhibition @ 10 uM
COc1ccc(C(=O)c2ccccc2)c(OCC(=O)NC23CC4CC(CC(C4)C2)C3)c1 | -5.23%
Cc1cc2ncn(Cc3ccc(Cl)cc3)c2cc1C | -2.28%
COc1ccc(Cl)cc1-n1c(C)cc(/C=C2/C(=N)N3C(=NC2=O)SN=C3S(C)(=O)=O)c1C | -5.27%
COc1cc(S(=O)(=O)Nc2ccc(C)cc2)ccc1N/C=C1\C(=O)N(C)C(=O)C(C#N)=C1C | -11.9%
COc1cc(NC(=O)c2ccc(Cl)c(Cl)c2)c(OC)cc1NC(C)=O | -1.78%
Cc1cccn2c(=O)c3cc(C(=O)N4CCN(C)CC4)c(=N)n(Cc4ccco4)c3nc12 | -1.47%
CCOC(=O)c1c(S(=O)(=O)NC2CCN(C(=O)OCC)CC2)c(C)n(C)c1C | 1.9%
Cc1ccc2oc(=O)c(-c3nc4cc(C(=O)O)ccc4[nH]3)cc2c1 | -2.78%
COc1ccccc1CNCc1ccccc1OC | 2.65%
O=S(=O)(Cc1ccccc1)Nn1cnnc1 | 0.736%
COc1cc(/C(C#N)=C/c2ccc(Cl)cc2)c([N+](=O)[O-])cc1OC | 3.03%
CC(=O)N1CCC(N2C[C@@H]3C[C@H](C2)c2cccc(=O)n2C3)CC1 | -1.85%
Cc1ccc(C(=O)N/C(=C\c2ccc(F)cc2)C(=O)NCCN2CCOCC2)cc1 | 8.01%
CCOC(=O)c1[nH]c2ccccc2c1NC(=O)c1ccc(S(=O)(=O)N2CCCCC2)cc1 | -4.23%
CCOC(=O)c1nnn(-c2nonc2N)c1COc1ccc(F)cc1 | 3.25%
O=c1cc(CSc2nc3ccsc3c(=O)n2Cc2ccc3c(c2)OCO3)c2ccc(O)cc2o1 | 1.24%
c1ccc(-c2nc3ccccc3c3nnnn23)cc1 | 5.64%
CCOC(=O)C1=C(C)N=C(C)/C(=C(/O)OCC)C1c1ccco1 (stereo not shown) | -9.55%
Cc1cnc(C(=O)NC2CCN(c3ncccn3)CC2)cn1 | 0.596%
COc1ccc(CCNC(=O)/C(=C/c2cccnc2)NC(=O)c2ccccc2)cc1OC | 3.79%
COc1cc(-c2nnc3sc(COc4ccccc4Cl)nn23)cc(OC)c1OC | 16.7%
Cc1cc(Br)ccc1OCC(=O)Nc1ccc(F)cc1 | 0.795%
CC(=O)N1CCC(NCc2ccc(Cl)c(Cl)c2)CC1 | -9.37%
O=C1CC(NC23CC4CC(CC(C4)C2)C3)C(=O)N1c1cccc(Cl)c1 (stereo not shown) | -9.24%
Cc1noc2ncnc(NCCCN3CCN(C)CC3)c12 | -10.6%

Compound | % Inhibition @ 10 uM
Cc1cc(Br)ccc1NC(=O)c1ccc(Cl)cc1 | -0.546%
CCc1ccc2nc(N3CCC(C(=O)NCCCN(CC)CC)CC3)sc2c1 | 2.59%
COc1ccc(C2=NN(CCC(=O)NC3CCCCCC3)C(=O)CC2)cc1 | 2.35%
O=C(NC12CC3CC(CC(C3)C1)C2)c1cccc([N+](=O)[O-])c1 | -0.856%
Cc1cccc(NC(=O)c2c(F)cccc2F)c1C | 2.26%
CCC1CCCCN1C(=O)c1cc(-c2ccccc2OC)on1 (stereo not shown) | -5.52%
COc1cc(OC)cc(C(=O)Nc2cccc(Cl)c2)c1 | -3.5%
O=C(Cc1cccs1)N1CCN(c2ccc(OCc3ccccc3)cc2)CC1 | 5.97%
CCOc1ccccc1C1NC(S)=NC(C)=C1C(=O)OCc1ccccc1 (stereo not shown) | 1.38%
Cc1nc2c3cccnc3nn2c(C)c1CCC(=O)NCCc1ccc(Cl)cc1 | 3.2%
COc1ccc(/C=C2\SC(N3CCCCC3)=NC2=O)cc1 | 5.7%
CCN(CC)C(=O)CN(c1ccccc1F)S(=O)(=O)c1ccccc1 | 3.66%
CCCCNC(=O)c1cc(-c2cccc(O)c2)on1 | -1.84%
CC1(C)CC(=O)c2cnc(NCc3ccccc3)nc2C1 | 1.98%
CCCNC(=O)c1ccc2nc(SCc3ccc(F)cc3)n(C)c2c1 | -0.788%
Fc1cccc(F)c1CNc1ccc2[nH]ncc2c1 | 1.57%
O=C(O)c1ccc(N2CCCCC2)cc1 | 3.25%
Oc1cc(-c2ccncc2)[nH]n1 | 0.503%
O=C(CN(c1ccc(F)cc1)S(=O)(=O)c1ccccc1)NCc1ccncc1 | 4.61%
Cc1ccc(Cl)cc1NC(=O)C1CC(=O)N(c2cccc(Cl)c2C)C1 (stereo not shown) | 1.62%
CC(=O)Nc1ccc(C#N)c(C(C)(C)C)c1 | -3.83%
CCN1CCCC1CNC(=O)Cn1ncc2c3ccccc3n(Cc3ccccc3C)c2c1=O (stereo not shown) | -3.35%
CN(C)c1ccc(NC2=CC(=O)c3ccccc3C2=O)cc1 | 16%
COc1cc(NC(=O)C2CC(=O)N=C(N)S2)c(OC)cc1Cl (stereo not shown) | -4.86%
Cc1ccc(-c2nc(C#N)c(N3CCN(C)CC3)o2)cc1 | -1.33%

Compound | % Inhibition @ 10 uM
Cc1cc(C)cc(OCCc2c(C)n[nH]c2C)c1 | -1.2%
COc1ccc(N2CCN(c3oc(COc4cccc(Cl)c4)nc3C#N)CC2)cc1 | -4.67%
Cc1cccc(-n2cnc3cc(C(=O)N4CCCCC4)ccc32)c1 | -5.64%
CCOc1ccc(NC(=O)C(C)Sc2nc3cc(F)ccc3[nH]2)cc1 (stereo not shown) | -3.69%
CCOC(=O)/C(C#N)=C/c1c(Oc2ccccc2Cl)nc2c(C)cccn2c1=O | -1.43%
Cc1ccc(S(=O)(=O)N=Nc2c(O)[nH]c3ccccc23)cc1 | 5.98%
Cc1ccc(OCC(=O)NC(Cc2ccccc2)C(=O)O)cc1 (stereo not shown) | -1.46%
CCOC(=O)c1c(/N=C/C2C(=O)c3ccccc3C2=O)sc2c1CCCC2 | -5.01%
CN1C(=O)N(c2cccc(Cl)c2)C(NC(=O)Nc2ccc(Cl)cc2)C1(C)C (stereo not shown) | 3.53%
CCC(C)(C)C1CCc2c(sc(NC(=O)C3CC3)c2C(N)=O)C1 (stereo not shown) | 1.49%
COc1ccc(C2=NS(=O)(=O)N(C)C(C(=O)N3CCCCC3C)=C2)cc1 (stereo not shown) | 6.8%
COc1ccc(NC(=O)CSc2nc3cccnc3[nH]2)c(OC)c1 | 3.29%
C=C1c2cc(C)c(C)cc2NC(=O)N1c1ccccc1 | -1.55%
CC1CCN(C(=O)c2cc3c(s2)-c2ccccc2SC3)CC1 | -2.16%
Clc1cccc(CN2CCN(Cc3cccnc3)CC2)c1 | 2.39%
CCOC(=O)c1cnc2ncnn2c1O | -11.6%
CCN(CC)C1=C(n2nnc3ccccc32)C(=O)c2ccccc2C1=O | -2.5%
COCCCNC(=O)c1ccc2c(c1)ncn2-c1ccc(OCc2ccccc2)cc1 | 4.35%
CCOC(=O)N1CCC(NC(=O)CSCc2cnn(-c3ccccc3)c2-n2cccc2)CC1 | -1.08%
O=C(O)C(c1ccccc1)C(C(=O)O)c1ccccc1 (stereo not shown) | 0.00178%
CCC/N=c1\c(NS(=O)(=O)c2cccc(C#N)c2)c(O)oc2ccccc12 | 2.31%
N#CC1=C(N)Oc2cc(N)ccc2C1c1ccccc1Br (stereo not shown) | 3.03%
COc1ccc(CCc2nc(C)ccc2O)cc1 | -0.128%
CC(C)C[C@H](NC(=O)C1CCc2ccccc2C1)C(=O)NCC#N (stereo partly shown) | 4.33%
CC(=O)N(C)S(=O)(=O)c1ccc(C)cc1 | 2.92%
